# From PMC4336329 (PLoS ONE, 2015)
# Hit rate of the full screen: of about 310,000 compounds, about 2,200 (0.71%) showed an effect of 50% or more. The effect is printed as a negative number. The list shows a part of the results.
# Biological target: human ether-à-go-go-related gene (hERG) potassium channel (human, UniProt Q12809)
# Test: primary screen, population patch clamp on CHO cells stably expressing hERG
# Chain of human ether-à-go-go-related gene (hERG) potassium channel (Q12809 whole entry, looked up): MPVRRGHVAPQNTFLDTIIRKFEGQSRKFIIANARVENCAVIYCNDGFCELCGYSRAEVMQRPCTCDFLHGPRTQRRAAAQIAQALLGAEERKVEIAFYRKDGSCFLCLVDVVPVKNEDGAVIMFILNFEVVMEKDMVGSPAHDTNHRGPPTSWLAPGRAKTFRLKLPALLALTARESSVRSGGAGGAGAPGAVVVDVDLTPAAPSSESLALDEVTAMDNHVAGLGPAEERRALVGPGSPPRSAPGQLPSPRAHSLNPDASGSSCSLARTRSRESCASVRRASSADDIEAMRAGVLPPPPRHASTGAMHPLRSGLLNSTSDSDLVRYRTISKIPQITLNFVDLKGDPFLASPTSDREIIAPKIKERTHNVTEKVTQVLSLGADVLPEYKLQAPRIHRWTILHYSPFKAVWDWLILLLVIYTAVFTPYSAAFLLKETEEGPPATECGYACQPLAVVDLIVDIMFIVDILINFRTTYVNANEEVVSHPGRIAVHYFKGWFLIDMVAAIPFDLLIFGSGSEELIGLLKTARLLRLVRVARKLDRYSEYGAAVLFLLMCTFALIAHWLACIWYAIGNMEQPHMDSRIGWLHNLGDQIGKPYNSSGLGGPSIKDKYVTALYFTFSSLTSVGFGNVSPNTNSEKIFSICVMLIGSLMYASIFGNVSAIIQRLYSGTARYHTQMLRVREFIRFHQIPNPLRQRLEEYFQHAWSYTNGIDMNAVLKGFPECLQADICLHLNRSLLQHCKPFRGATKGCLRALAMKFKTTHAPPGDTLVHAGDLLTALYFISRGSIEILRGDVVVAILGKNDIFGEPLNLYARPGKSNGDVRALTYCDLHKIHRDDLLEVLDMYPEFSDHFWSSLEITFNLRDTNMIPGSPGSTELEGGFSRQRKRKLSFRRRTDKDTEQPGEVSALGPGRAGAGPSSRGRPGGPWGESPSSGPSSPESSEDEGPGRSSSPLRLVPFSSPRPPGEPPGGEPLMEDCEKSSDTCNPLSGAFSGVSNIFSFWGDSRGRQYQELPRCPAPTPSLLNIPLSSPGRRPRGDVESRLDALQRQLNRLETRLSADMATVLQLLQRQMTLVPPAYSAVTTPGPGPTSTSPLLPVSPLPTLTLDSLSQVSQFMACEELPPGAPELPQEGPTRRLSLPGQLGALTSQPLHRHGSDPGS
row,Structure (SMILES),"hERG current change (%, negative = inhibition) at 1uM [%]"
1,O=S(=O)(NCc1ccccn1)c1cc(OCC(F)(F)F)ccc1OCC(F)(F)F,-40.1
2,CCN(C(=O)CSc1nncs1)c1c(N)n(Cc2ccccc2)c(=O)[nH]c1=O,5.54
3,COc1cc2[nH]c(=O)n(CCCCCC(=O)NCCCN3CCCC3=O)c(=O)c2cc1OC,1.56
4,COC(=O)c1ccc(OS(=O)(=O)N(C)C)cc1,16.6
5,Cc1nn(CCCC(=O)NCc2ccc(F)cc2)c(=O)c2nccn12,13
6,CC(C)Nc1nnc(Sc2ccc(Cl)cc2[N+](=O)[O-])s1,2.47
7,Cc1c(Br)c([N+](=O)[O-])nn1CC(=O)Nc1sc2c(c1C(=O)OC(C)C)CCC(C)C2 (stereo not shown),12.2
8,CC(=O)c1c(C)[nH]c(C(=O)OCC(=O)Nc2ccc(Cl)c(S(=O)(=O)N(C)C)c2)c1C,-2.69
9,O=C(CSc1ncccn1)Nn1cnnc1,12.2
10,CCN1C(=O)C2(C(C#N)=C(N)Oc3cc(C)oc(=O)c32)c2ccccc21 (stereo not shown),8.19
11,CC(C)n1c(-c2ccc(C(C)(C)C)cc2)n[nH]c1=S,9.76
12,COc1cccc2sc(=NC(=O)CCS(=O)(=O)c3ccc(C)cc3)n(C)c12,6.98
13,O=C(c1ccco1)N1CCN(C(=O)N2CCCC2)CC1,3.55
14,O=C1C=C(NNC(=O)c2ccccc2Br)CCC1,13.3
15,Cc1ccc2oc(=O)n(Cc3ccc(OC(C)C)cc3)c2c1,7.16
16,Cc1ccc(NN2C(=O)C=CC2=O)cc1,1.48
17,Cc1ccc(-n2nnc3c(=O)n(CC(=O)NCc4ccccc4)cnc32)cc1,-0.575
18,CCc1cc(=O)oc2cc(C)cc(OCC(=O)N[C@@H](CSCc3ccccc3)C(=O)O)c12,11.3
19,COc1ccc(/C=N/NC(=O)c2cccc([N+](=O)[O-])c2)cc1O,9.41
20,CC1CCCCN1CCCNC(=O)c1ccc(N2CCCC2=O)cc1 (stereo not shown),15.8
21,COC(=O)c1c(C(=O)OC)c(C)n(Cc2cccnc2)c1C,6.42
22,O=c1c2cc(Br)ccc2nc(-c2cccc(C(F)(F)F)c2)n1O,14.6
23,COc1cccc(N2C(=O)C3NN=C(C(=O)CN4C(=O)c5ccccc5C4=O)C3C2=O)c1 (stereo not shown),13.1
24,CCOc1ccc(C(CC(=O)O)NC(=O)c2sc3ccccc3c2Cl)cc1 (stereo not shown),9.27
25,COc1cc(OC)c(N(C)S(=O)(=O)c2cccc(C(=O)NC(C)C3CC4CCC3C4)c2)cc1Cl (stereo not shown),11.2
